Experimental data published in the supplement of paper PMC9151546.
Single values are uncertain, as repeats are few or missing.

Tests used:
CHO-K1 [1] = test: relative survival (nuclei to bead ratio vs DMSO control) (% of vehicle control); higher = more surviving cells
Protocol: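 Flow-cytometric in vitro micronucleus assay (Litron MicroFlow) in CHO-K1 cells in 96-well plates, 19 concentrations (4.5-200 µM, n=1 per concentration). Without S9, cells were exposed for 24 h and sampled at 48 h. With Aroclor 1254-induced rat liver S9, cells were exposed for 3-4 h and sampled at 27-28 h. Read-outs are %MN and %hypodiploid nuclei relative to nucleated events, and relative survival as the nuclei-to-bead ratio versus the 1% DMSO vehicle control (x100).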

CHO-K1 [2] = test: micronucleus frequency (% of nucleated events); higher = more micronuclei (genotoxic)
CHO-K1 [3] = test: hypodiploid nuclei frequency (% of nucleated events); higher = more hypodiploid events (aneugenic)
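Throughout, for hypodiploid nuclei frequency (% of nucleated events): hypodiploid nuclei gated on a flow cytometer with 488 nm excitation after SYTOX Green staining, cultures at 37 °C, positive controls vinblastine without S9 and cyclophosphamide with S9.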
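Throughout, for micronucleus frequency (% of nucleated events): cells lysed with nuclei stained by SYTOX Green, then micronucleus-gated events counted against nucleated events by flow cytometry with 488 nm excitation.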
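Throughout, for relative survival (nuclei to bead ratio vs DMSO control): Lysed-cell nuclei stained with SYTOX Green and counted against counting beads by flow cytometry at 488 nm excitation, with vinblastine (no S9) and cyclophosphamide (plus S9) as positive controls.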

O=NN(c1ccccc1)c1ccccc1 [N-Nitrosodiphenylamine]
Details	hypodiploid nuclei frequency, CHO-K1 [3] [%]	micronucleus frequency, CHO-K1 [2] [%]	relative survival, CHO-K1 [1]
concentration: 4.5 (µM), S9 metabolic activation: with S9, exposure time: 3-4 hours	0.3	1.18	92
concentration: 4.5 (µM), S9 metabolic activation: without S9, exposure time: 24 hours	0.92	1.52	90.6
concentration: 5.63 (µM), S9 metabolic activation: with S9, exposure time: 3-4 hours	0.22	1.34	62.7
concentration: 5.63 (µM), S9 metabolic activation: without S9, exposure time: 24 hours	1.54	1.16	118
concentration: 7.04 (µM), S9 metabolic activation: with S9, exposure time: 3-4 hours	0.2	1.12	66
concentration: 7.04 (µM), S9 metabolic activation: without S9, exposure time: 24 hours	0.9	1.44	90.6
concentration: 8.8 (µM), S9 metabolic activation: with S9, exposure time: 3-4 hours	0.26	1.52	84.4
concentration: 8.8 (µM), S9 metabolic activation: without S9, exposure time: 24 hours	0.74	1.36	93.6
concentration: 11 (µM), S9 metabolic activation: with S9, exposure time: 3-4 hours	0.12	1.46	80.5
concentration: 11 (µM), S9 metabolic activation: without S9, exposure time: 24 hours	0.76	1.2	83.5
concentration: 13.7 (µM), S9 metabolic activation: with S9, exposure time: 3-4 hours	0.34	1.6	83.8
concentration: 13.7 (µM), S9 metabolic activation: without S9, exposure time: 24 hours	0.78	1.28	82.4
concentration: 17.2 (µM), S9 metabolic activation: with S9, exposure time: 3-4 hours	0.1	2.04	79.7
concentration: 17.2 (µM), S9 metabolic activation: without S9, exposure time: 24 hours	1.82	1.02	89
concentration: 21.5 (µM), S9 metabolic activation: with S9, exposure time: 3-4 hours	0.28	1.64	110
concentration: 21.5 (µM), S9 metabolic activation: without S9, exposure time: 24 hours	0.88	1.12	88.1
concentration: 26.8 (µM), S9 metabolic activation: with S9, exposure time: 3-4 hours	0.26	1.5	80.5
concentration: 26.8 (µM), S9 metabolic activation: without S9, exposure time: 24 hours	1.26	2.16	101
concentration: 33.6 (µM), S9 metabolic activation: with S9, exposure time: 3-4 hours	0.24	1.4	103
concentration: 33.6 (µM), S9 metabolic activation: without S9, exposure time: 24 hours	3.16	1.48	86
concentration: 41.9 (µM), S9 metabolic activation: with S9, exposure time: 3-4 hours	0.2	1.32	70.3
concentration: 41.9 (µM), S9 metabolic activation: without S9, exposure time: 24 hours	1.24	1.92	102
concentration: 52.4 (µM), S9 metabolic activation: with S9, exposure time: 3-4 hours	0.16	1.12	73.2
concentration: 52.4 (µM), S9 metabolic activation: without S9, exposure time: 24 hours	1.66	1.68	99.8
concentration: 65.5 (µM), S9 metabolic activation: with S9, exposure time: 3-4 hours	0.2	1.5	56.9
concentration: 65.5 (µM), S9 metabolic activation: without S9, exposure time: 24 hours	1.7	1.64	80.1
concentration: 81.9 (µM), S9 metabolic activation: with S9, exposure time: 3-4 hours	0.28	2.32	67.3
concentration: 81.9 (µM), S9 metabolic activation: without S9, exposure time: 24 hours	1.78	1.54	91.5
concentration: 102 (µM), S9 metabolic activation: with S9, exposure time: 3-4 hours	0.32	1.36	63.6
concentration: 102 (µM), S9 metabolic activation: without S9, exposure time: 24 hours	1.94	2.1	83.2
concentration: 128 (µM), S9 metabolic activation: with S9, exposure time: 3-4 hours	0.36	1.84	58.8
concentration: 128 (µM), S9 metabolic activation: without S9, exposure time: 24 hours	3.48	1.86	73
concentration: 160 (µM), S9 metabolic activation: with S9, exposure time: 3-4 hours	0.26	2.68	68.6
concentration: 160 (µM), S9 metabolic activation: without S9, exposure time: 24 hours	4.26	2.36	59.5
concentration: 200 (µM), S9 metabolic activation: with S9, exposure time: 3-4 hours	0.36	2.62	67
concentration: 200 (µM), S9 metabolic activation: without S9, exposure time: 24 hours	4.04	2.64	74.5
